Assay results from US6420131B1, “Use of fluorescein aryl ethers in high throughput cytochrome P450 inhibition assays” (Gentest Corporation, priority 1999, dated 2002).

Substrate: O=C(OCc1ccccc1)c1ccccc1-c1c2ccc(=O)cc-2oc2cc(OCc3ccccc3)ccc12
Experiment: Enzyme kinetics of substrate turnover by cDNA-expressed CYP3A4
Assay type: biochemical, human
Settings: other: CYP3A4, apparent Km
Description: The evaluation of compounds of Formula I were performed by measuring the kinetics of turnover using cDNA-expressed cytochromes P450 CYP3A4 and CYP2C8. Vmax and Km values are important for the optimization of the assay conditions and for setting the parameters for inhibition experiments.
Example Compound Ia. […] Final incubation volume was 0.2 ml. […] The activity was quantitated by comparing to a standard curve of fluorescein. Apparent Km and Vmax values were calculated by non-linear regression using SigmaPlot software.

B1: human CYP3A4 (Homo sapiens) (protein)
chain: MALIPDLAMETWLLLAVSLVLLYLYGTHSHGLFKKLGIPGPTPLPFLGNILSYHKGFCMFDMECHKKYGKVWGFYDGQQPVLAITDPDMIKTVLVKECYSVFTNRRPFGPVGFMKSAISIAEDEEWKRLRSLLSPTFTSGKLKEMVPIIAQYGDVLVRNLRREAETGKPVTLKDVFGAYSMDVITSTSFGVNIDSLNNPQDPFVENTKKLLRFDFLDPFFLSITVFPFLIPILEVLNICVFPREVTNFLRKSVKRMKESRLEDTQKHRVDFLQLMIDSQNSKETESHKALSDLELVAQSIIFIFAGYETTSSVLSFIMYELATHPDVQQKLQEEIDAVLPNKAPPTYDTVLQMEYLDMVVNETLRLFPIAMRLERVCKKDVEINGMFIPKGVVVMIPSYALHRDPKYWTEPEKFLPERFSKKNKDNIDPYIYTPFGSGPRNCIGMRFALMNMKLALIRVLQNFSFKPCKETQIPLKLSLGGLLQPEKPVVLKVESRDGTVSGA
notes: purchased GENTEST Corporation P202; host or cells: baculovirus/insect cells (microsomes, SUPERSOMES)
Km: 0.87 ± 0.12 µM
